The list shows a part of the results.

This assay relates to PfAP2-HC AP2 domain (GST-tagged). The assay is described as follows: gcPBM binding intensity (ln(normalized median fluorescence intensity)); higher = stronger DNA binding. The gist of the method:
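After 1 h on an Agilent 4 × 180k array of primer-extended double-stranded 36-bp intergenic genomic probes and negative controls, bound GST-tagged P. falciparum DNA-binding domains were detected with Alexa488 anti-GST antibody and scanned at 488 nm. The domains had been expressed in E. coli, and binding took place in 1× PBS with 1% milk, 0.2 mg/ml BSA, 0.5% salmon testes DNA and 0.03% Triton X-100. Binding intensity is the highest Masliner-normalised natural-log median intensity across replicate spots of either probe orientation.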
As for “AATTTATTATTTTATTGTACGTATTTTTTTTTTTAT [XGTACX_site2298]”, the “gcPBM binding intensity (ln)” value worked out at 9.76. To “AAAAAATATTAGACTTATAAAGCATAAAGGATATTA [GTGCAC_negctrl_site588]” belongs 9.6; to “CATATATAAATATATACACACATACATACATACATA [CACACA_site5988]”, 10.6.

Regarding “ATATTATAGTTATGAACATGCAAACATTACGAAATA [TGCATGCA_site54]”, the “gcPBM binding intensity (ln)” value came out at 9.69. To “TTTATATATATAATATGTACACATAATAATAATACA [XGTACX_site4862]” belongs 9.29; to “AAATGACATTTCAAAAGTACATATTTAATTAATTAA [XGTACX_site2919]”, 9.51. For the sequence “TTAAATATAAAAAGTAGTACATTTATATTTACCATA [XGTACX_site2962]”, the “gcPBM binding intensity (ln)” value worked out at 9.41.

On to “AAAAAACGACCTTACGCACACATTATTCTAGTCTAT [CACACA_site2349]”, for which the “gcPBM binding intensity (ln)” value worked out at 9.99. “TCAAATTATATGAGTGGTACACATGTAATATTTTTA [XGTACX_site6518]”: the “gcPBM binding intensity (ln)” value is 9.67. “AAAAAAATATATATTACACACATATATACATATATA [CACACA_site3125]”: the “gcPBM binding intensity (ln)” value is 9.78. For the sequence “ATATTTTGTATAATCACACACACTATTATTAAATAG [CACACA_site2612]”, the “gcPBM binding intensity (ln)” value came to 10.2. With “TTACATTTTTTATGTTTTTTTATATTGCAAAAAAAT [CACACA_negctrl_site1050]”, the “gcPBM binding intensity (ln)” value was 9.46. For the sequence “ATATATATATATATATGTACTTATTAAGATTAAAAA [XGTACX_site61]”, the “gcPBM binding intensity (ln)” value was found to be 9.6. The figure for “ATATTTCATCTAGCTACACACATATAACAAATTACT [CACACA_site7843]” is 9.91; for “TACATAAAAATATCACGTACATATAATCATATACTA [XGTACX_site3505]” it is 9.57.

Take “ACCTTTGATATATACACACACATAAAAAAAATATAT [CACACA_site6952]”: the “gcPBM binding intensity (ln)” value amounted to 10.1. The figure for “AAAAAAAAAAAAAAAACACACATACACCCCCACCCA [CACACA_site9117]” is 10.2; for “TATAAATATAAATACACACACACATCAATACAGATA [CACACA_site5850]” it is 11; for “ATTAATAATATTCCTTGTACATGATTTTTCTAAATA [XGTACX_site7099]” it is 9.54. With “TGTGTTAATAGAAAAAGTACATATACATATATATAT [XGTACX_site4951]”, the “gcPBM binding intensity (ln)” value stood at 9.65. In the case of “TGCACAGACGGACACACACACAACTAAAAAATAATG [CACACA_site5424]”, the “gcPBM binding intensity (ln)” value worked out at 10.7. For “TATAATAATGCCTTTACATGCAATAATAAAGAAATA [TGCATGCA_site631]”, the “gcPBM binding intensity (ln)” value came to 9.55.

With “AATGAATTAATAGCTACACACGGTAACATAATAACT [CACACA_site851]”, the “gcPBM binding intensity (ln)” value was 9.92. With “TCTTTTGAACAAATTTGTACGTATATAAAAATATTT [XGTACX_site6547]”, the “gcPBM binding intensity (ln)” value was found to be 9.54. To “TATAAATACTTATATGTACACACATATAGATATATA [CACACA_site8819]” belongs 9.64; to “CGCATACACCAACACACACACACATATATATATATA [CACACA_site635]”, 10.5.

For the sequence “AGAAGTCTGTAATGATGTACTGGAAAAATATAAATA [XGTACX_site8148]”, the “gcPBM binding intensity (ln)” value came to 9.56. On to “TAGATCTTATTTACAAGTACATATATACGATTCATT [XGTACX_site7578]”, for which the “gcPBM binding intensity (ln)” value is 9.54. On to “ATCTAATATATATTCTGTACGTAATTAAAACCACAA [XGTACX_site3152]”, for which the “gcPBM binding intensity (ln)” value is 9.53. Turning to “ATGTTGTCAAAAAAATGTACTTACATAATATTTTCC [XGTACX_site1732]”, the “gcPBM binding intensity (ln)” value amounted to 9.53. On to “ATATATATATATATTTGTACATATATATAATTTTTC [XGTACX_site7460]”, for which the “gcPBM binding intensity (ln)” value came to 9.53.

Regarding “TATAATTGTCTTCACACACACATATATATATATATA [CACACA_site2743]”, the “gcPBM binding intensity (ln)” value worked out at 10.1. With “AAAATAAAAAAAAAAGGTACACAAAAAGATGGACTG [XGTACX_site2650]”, the “gcPBM binding intensity (ln)” value came out at 9.77.

Turning to “TTTTTTTTTTAAAAAACACACACCTAAACAAGATAT [CACACA_site875]”, the “gcPBM binding intensity (ln)” value came out at 10. The figure for “AAATTAATTAAATATACACACATATATAAATATATA [CACACA_site391]” is 9.99. In the case of “ATATATATATAAAGTTGTACATTTTTTATTTTTTCA [XGTACX_site7847]”, the “gcPBM binding intensity (ln)” value was 9.6. Turning to “TTGTTTTTAGTTTATACACACCATATTAATATAATG [CACACA_site7452]”, the “gcPBM binding intensity (ln)” value came to 9.86.

For the sequence “ATTTGGCATGGACACACACACACACCGACAGACATA [CACACA_site4491]”, the “gcPBM binding intensity (ln)” value was 11.4. Turning to “TTATATTATGGACACACACACAAAAAAAAAAAAAAA [CACACA_site7744]”, the “gcPBM binding intensity (ln)” value is 10.3. As to “TATATATATATGTATACACACATATGTATGTTATGT [CACACA_site4053]”, the “gcPBM binding intensity (ln)” value was 9.91. For the sequence “GCATAATATACTCTTACACACCATTTCTATATACAT [CACACA_site6799]”, the “gcPBM binding intensity (ln)” value was 10. Take “TTTGTTAATTATAAATGTACATATTATATATATATA [XGTACX_site8870]”: the “gcPBM binding intensity (ln)” value stood at 9.56. Regarding “TTAAAACCAAAACACAGTACATATATATATATATAT [XGTACX_site5668]”, the “gcPBM binding intensity (ln)” value stood at 9.61. On to “CAATTTTAAGTAATCAATTTTTTTAAAAAACACAAA [CACACA_negctrl_site961]”, for which the “gcPBM binding intensity (ln)” value is 9.39. The figure for “AAAATATATTATATATGTACATATTACGTTTTAATT [XGTACX_site2518]” is 9.79.

Source of the values: the supplement of paper PMC11417369.
